This is an account of results in the supplement of paper PMC4166925.

± gives the standard deviation of the averaged measurements. In all, about 33,000 sequences were measured (“E-score (dimensionless, -0.5 to 0.5)”: median about -0.046, highest 2% from about 0.36 on). The list shows a part of the results.

In the assay the test system is T1, SpTbr T-box DNA-binding domain (GST fusion).
T1 sequence: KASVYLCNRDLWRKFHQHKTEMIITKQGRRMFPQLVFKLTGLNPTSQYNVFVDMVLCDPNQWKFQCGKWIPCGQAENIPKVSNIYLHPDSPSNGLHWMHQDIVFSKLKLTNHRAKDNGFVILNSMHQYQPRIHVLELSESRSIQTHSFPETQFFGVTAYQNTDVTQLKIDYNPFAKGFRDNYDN
The assay can be described thus: PBM E-score of 8-mer (E-score (dimensionless, -0.5 to 0.5)); Tbr is Tbrain of the sea star Patiria miniata (Pm) or the sea urchin Strongylocentrotus purpuratus (Sp); higher = stronger binding preference; most listed sequences are background and not binding sites. Particulars: the construct has about 5 more residues each side. In short, it runs like this:
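Universal Agilent oligonucleotide arrays, made double-stranded by primer extension, were incubated with 200 nM GST-fused Tbr T-box DNA-binding domain in PBS (pH 7.5). The protein was expressed in BL21 E. coli at 20 °C and purified by glutathione affinity chromatography. After scanning and quantification, the Universal PBM Analysis Suite assigned an enrichment E-score to each ungapped 8-mer, averaged over duplicate arrays.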
Take GTACGCAC: the “PBM E-score of 8-mer” value was 0.155 ± 0.046. As for GAGTCCAA, the figure is -0.0956 ± 0.078. Take CCAGAACG: the “PBM E-score of 8-mer” value is -0.0022 ± 0.05. As for ACCGGTCA, the figure is -0.0138 ± 0.059; as for ATCGCCCG, 0.0885 ± 0.019. Next, AGCAGGCT: -0.112 ± 0.021; CTGACTTA: -0.282 ± 0.053; ACTTCTCT: 0.0471 ± 0.035. As for AATTGCCC, the figure is -0.0475 ± 0.046; as for CTTACATC, -0.0524 ± 0.031; as for TACCGTGA, 0.0752 ± 0.024. With GAGACGGA, the “PBM E-score of 8-mer” value was -0.0933 ± 0.059. Turning to ACTGTCAA, the “PBM E-score of 8-mer” value came to 0.183 ± 0.035. Next, ATAGAGCG: -0.0811 ± 0.011; CTTGAGTC: -0.27 ± 0.028. Next, ATGGTGCA: -0.0269 ± 0.053; CACGGGTC: 0.0618 ± 0.0081.

Regarding CGCCCCTC, the “PBM E-score of 8-mer” value is -0.0184 ± 0.037. Next, GGATTCCA: -0.0549 ± 0.074; GACGGTAC: -0.0628 ± 0.0078.

As for CACCATGA, the “PBM E-score of 8-mer” value amounted to 0.224 ± 0.035. As for ATCACATA, the figure is 0.251 ± 0.055; as for CAGATCTA, -0.116 ± 0.053; as for GATGAGCC, -0.183 ± 0.027. Next, GGCTTCCA: -0.277 ± 0.0097; ATGATAAC: 0.092 ± 0.059; ATGCAACG: -0.179 ± 0.061.

Consider AGGTATGA, for which the “PBM E-score of 8-mer” value is 0.0596 ± 0.1. As for ACAACGTC, the figure is 0.0487 ± 0.035; as for ATGACCGC, -0.276 ± 0.039; as for CTTTCCGA, -0.0285 ± 0.011. As for CGCGAACA, the figure is 0.36 ± 0.019; as for AATTGCTC, 0.0817 ± 0.052. ACTGATCA: the “PBM E-score of 8-mer” value is -0.0788 ± 0.045. As for CCGCTTTA, the figure is -0.0876 ± 0.016; as for GCCCGAAA, -0.0313 ± 0.068; as for ATAGATTA, -0.192 ± 0.067.

For CATCGCAG, the “PBM E-score of 8-mer” value stood at 0.109 ± 0.046. As for GCCGTCCA, the figure is -0.141 ± 0.026; as for AGACGCTG, -0.00072 ± 0.027; as for GGGTGTTA, 0.463 ± 0.0026. As for GACGGAGC, the figure is -0.152 ± 0.03; as for ACAATCAA, -0.00286 ± 0.085. As for CCCTAGCG, the figure is -0.169 ± 0.041; as for AACGACAA, 0.174 ± 0.029; as for AAATGATG, -0.136 ± 0.032. CACATTCG: the “PBM E-score of 8-mer” value stood at 0.32 ± 0.027.

Consider AGTCCACG, for which the “PBM E-score of 8-mer” value worked out at 0.0351 ± 0.016. As for ATTACCGA, the “PBM E-score of 8-mer” value was -0.0478 ± 0.011. As for ATCGGTGA, the figure is 0.0276 ± 0.0038; as for AGATTATC, 0.107 ± 0.025.

As to AATGCTCA, the “PBM E-score of 8-mer” value is -0.103 ± 0.034. As for AGCGAAGG, the figure is 0.0517 ± 0.061; as for CCGTTATC, 0.12 ± 0.073.

With CTCCCTAA, the “PBM E-score of 8-mer” value is -0.144 ± 0.072. As for AGAAATGA, the figure is -0.0865 ± 0.051. Next, TACCAGAA: -0.0225 ± 0.033; ATGACCCC: -0.166 ± 0.0049; CGTTCGAC: 0.132 ± 0.0074. ACCGACTC: the “PBM E-score of 8-mer” value is -0.0639 ± 0.11.

Consider CTATTACC, for which the “PBM E-score of 8-mer” value is -0.287 ± 0.022. As for ACGGGTAC, the figure is 0.0182 ± 0.026; as for GGGCTGAC, -0.186 ± 0.038.

In the case of AAGTAGAG, the “PBM E-score of 8-mer” value is -0.0619 ± 0.085. As for TAAAATGA, the figure is -0.0731 ± 0.027; as for CCAGTGGC, 0.0355 ± 0.044.

For AAGGTCGG, the “PBM E-score of 8-mer” value is -0.0921 ± 0.015. Next, AGCTTCTA: -0.193 ± 0.036; AATAAGTG: 0.227 ± 0.081; ACACATCT: 0.31 ± 0.029. Next, CCCACTAA: -0.0685 ± 0.092; CGTGGCAC: 0.203 ± 0.018; CAGAGTCC: -0.179 ± 0.019. Next, CCCAGCTC: -0.146 ± 0.026; GAATCCTC: -0.138 ± 0.017; CCCTAGCC: -0.176 ± 0.018. As for CTTTAGGC, the “PBM E-score of 8-mer” value amounted to 0.0616 ± 0.087. ACGTACAA: the “PBM E-score of 8-mer” value came to 0.0169 ± 0.00054. As for GCCCGGCA, the “PBM E-score of 8-mer” value amounted to 0.0357 ± 0.012. Next, ATGACGCA: 0.0994 ± 0.041. As for CTCAACGA, the figure is -0.0974 ± 0.069; as for ATGGGAGG, -0.265 ± 0.017; as for GCTTTCCC, 0.15 ± 0.061. Regarding CTTGTACC, the “PBM E-score of 8-mer” value was -0.197 ± 0.037. As for CGGGTGTA, the figure is 0.134 ± 0.068; as for TACAGCGA, -0.193 ± 0.038.
